The campaign covered roughly 310,000 compounds. About 14,000 (4.5%) showed an effect of 50% or more. Effects have a minus sign here. This is one part of the list.
Each molecule was assayed against human ether-à-go-go-related gene (hERG) potassium channel (human, UniProt Q12809) (assay: primary screen, population patch clamp on CHO cells stably expressing hERG).
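Also: peak tail current of the secondary pulse compared with the same well before compound.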

human ether-à-go-go-related gene (hERG) potassium channel, sequence (Q12809 whole entry, looked up): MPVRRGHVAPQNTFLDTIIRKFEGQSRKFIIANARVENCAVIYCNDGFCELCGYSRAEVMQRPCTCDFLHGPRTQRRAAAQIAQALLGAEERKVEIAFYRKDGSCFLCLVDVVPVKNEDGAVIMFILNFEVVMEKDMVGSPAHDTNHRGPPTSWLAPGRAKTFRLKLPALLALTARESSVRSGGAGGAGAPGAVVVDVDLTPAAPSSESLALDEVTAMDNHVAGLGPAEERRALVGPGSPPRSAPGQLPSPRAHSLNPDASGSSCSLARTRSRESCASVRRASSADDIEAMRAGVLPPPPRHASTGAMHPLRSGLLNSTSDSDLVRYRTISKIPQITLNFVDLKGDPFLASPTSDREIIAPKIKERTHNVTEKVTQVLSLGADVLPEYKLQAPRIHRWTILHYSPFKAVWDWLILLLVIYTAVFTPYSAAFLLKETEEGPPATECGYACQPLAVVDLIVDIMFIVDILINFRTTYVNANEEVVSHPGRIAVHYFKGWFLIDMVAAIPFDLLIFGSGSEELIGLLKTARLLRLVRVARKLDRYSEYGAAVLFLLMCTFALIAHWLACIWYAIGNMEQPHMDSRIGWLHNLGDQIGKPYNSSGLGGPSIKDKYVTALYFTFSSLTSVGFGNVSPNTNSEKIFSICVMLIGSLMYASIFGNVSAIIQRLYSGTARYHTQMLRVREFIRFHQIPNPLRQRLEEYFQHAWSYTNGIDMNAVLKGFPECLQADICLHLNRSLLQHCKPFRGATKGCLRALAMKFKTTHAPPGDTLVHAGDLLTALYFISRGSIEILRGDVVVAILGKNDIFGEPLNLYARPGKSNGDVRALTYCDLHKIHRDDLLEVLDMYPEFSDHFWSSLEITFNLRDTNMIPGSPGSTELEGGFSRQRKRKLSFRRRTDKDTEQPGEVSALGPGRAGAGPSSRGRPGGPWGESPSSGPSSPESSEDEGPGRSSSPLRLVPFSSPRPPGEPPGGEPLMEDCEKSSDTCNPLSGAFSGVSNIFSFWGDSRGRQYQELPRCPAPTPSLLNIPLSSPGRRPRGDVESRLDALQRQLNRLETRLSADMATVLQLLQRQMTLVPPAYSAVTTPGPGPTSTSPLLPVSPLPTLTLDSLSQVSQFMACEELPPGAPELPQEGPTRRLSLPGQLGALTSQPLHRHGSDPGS

| Structure (SMILES) | hERG current change (%, negative = inhibition) at 10uM |
| --- | --- |
| c1ccc(C2=Nc3ccccc3SC2c2nc3ccccc3[nH]2)cc1 (stereo not shown) | -33.3% |
| CCN(CC)C(=O)Cn1cc(C(=O)C(=O)N2CCN(Cc3ccc4c(c3)OCO4)CC2)c2ccccc21 | -2.05% |
| Cc1cc(C(=O)O)ccc1N/C=C1\CCCC(C)C1=O (stereo not shown) | -0.227% |
| CN(C)C(=O)Oc1ccc(Br)cc1C(=O)Nc1ccc(F)c(Cl)c1 | -17.8% |
| O=c1c(F)cn(C2CCCO2)c(=O)n1Cc1ccc(Cl)cc1 (stereo not shown) | -26.8% |
| Cc1cc(NC(C)C)n2c(nc3ccccc32)c1C#N | 25.6% |
| O=C(Nc1ccc(F)cc1F)c1cccc(S(=O)(=O)N2CCCCC2)c1 | -9.6% |
| COc1ccc(C(=O)N2CCn3c(C)ccc3C2C)cc1 (stereo not shown) | 8.7% |
| COc1ccc(C2SCC(=O)Nc3c2c(C)nn3C2CCOC(C)(C)C2)cc1 (stereo not shown) | 6.75% |
| CN(C)c1cccc(NC(=O)c2ccco2)c1 | -73.3% |
| O=C(Cn1nc(C(F)F)cc1C(F)F)NNC(=S)Nc1ccc(Cl)cc1 | 15.5% |
| CC(=O)c1ccc(NC(=O)CSc2ccc3nnc(-c4ccccn4)n3n2)cc1 | -64.7% |
| Cc1c(/C=N\NC(=O)c2cc3ccccc3o2)c2ccccc2n1C | -5.62% |
| Cc1ccc(-c2nnc(Nc3ccc(O)cc3)c3ccccc23)cc1S(=O)(=O)NCCO | 8.79% |
| CCOc1cc(C(=O)OCC(=O)c2c(C)[nH]c3ccccc23)ccc1OCC(=O)N1CCOCC1 | 2.82% |
| COc1ccc(Cl)cc1NC(=O)C1CC(c2ccccc2O)=NO1 (stereo not shown) | 9.15% |
| CCOc1cccc(C(=O)NNC(=O)C2C3C=CC(C3)C2C(=O)O)c1 (stereo not shown) | 16.6% |
| CCOCCCNCc1ccc(OCC(=O)N2CCOCC2)c(OC)c1.Cl | 4.74% |
| COc1ccc(N(CC(=O)Nc2ccc(C)cn2)S(=O)(=O)c2c(C)noc2C)cc1 | -24.8% |
| O=C1O/C(=C/c2ccccc2)c2ccccc21 | -3.12% |
| O=C(CCC(=O)N1CCOc2ccc(Cl)cc21)NCCCN1CCN(c2ccccc2F)CC1 | -66.5% |
| Cc1nc(NC(=O)c2cccnc2)ccc1Br | -13.3% |

| Structure (SMILES) | hERG current change (%, negative = inhibition) at 10uM |
| --- | --- |
| CCN(c1ccccc1)S(=O)(=O)c1cc(C(=O)Nc2ccccc2Cl)ccc1F | 8% |
| CCN(CC)c1ccc(NC(=O)COC(=O)CSc2ccc(Br)cc2C)cc1.O=S(=O)(O)O | -0.119% |
| N#Cc1ccccc1OCC(=O)N1N=C(c2cccs2)CC1c1ccco1 (stereo not shown) | -6.54% |
| C=CCn1c(-c2ccc3ncccc3c2)n[nH]c1=S | 19.6% |
| CN1CCN(c2ncc(C=O)s2)CC1 | 10.5% |
| Cc1cccc(NC(=S)NC(=O)CC2CC(C)(C)OC2=O)c1 (stereo not shown) | 4.55% |
| Cc1cc(C)nc(N2CCC(C(=O)NCc3cccc(C(F)(F)F)c3)CC2)n1 | 7.21% |
| COc1ccc(-c2cc(C(=O)NC3CC3)c3ccccc3n2)cc1 | -64.5% |
| COc1ccc(N2C(=O)CC(Sc3nc4ccccc4s3)C2=O)cc1OC (stereo not shown) | 12.2% |
| CCOC(=O)C1=C(N)Oc2cc(C)oc(=O)c2C1c1cccnc1 (stereo not shown) | 13.5% |
| Cc1nnc(SCc2c(Cl)cccc2Cl)n(N)c1=O | -34.9% |
| CCN1CCN(CCNC(=O)C2CCCN(Cc3nc(-c4cccc(Cl)c4)oc3C)C2)CC1 (stereo not shown) | -6.73% |
| CCOC(=O)C1=C(C)N(C)C(C)=C(C(=O)OCC)C1c1ccc(Cl)cc1 | -17.9% |
| CCN1CCN(CCOc2ccc(Cl)cc2)CC1.O=C(O)C(=O)O | -34.3% |
| COc1ccccc1C(=O)NCCCNC(=O)c1cnccn1 | 18.3% |
| O=C(Nc1cccc(-n2cnnn2)c1)c1ccoc1COc1ccc(Cl)cc1 | 5.57% |
| COc1ccc(N2CCN(C(=O)CSc3nnc(NC(=O)C4CCC4)s3)CC2)cc1 | 14% |
| Nc1c2c(nc3sc4c(c13)CCCCC4)CCCC2 | -48.3% |
| CC(C)[C@H](NC(=O)NCc1ccco1)C(=O)O | 10.9% |
| Cc1cc(N2CCOCC2)c(F)cc1C(=O)c1ccccc1 | -10.9% |
| CC(C)C[C@@H](C(=O)NCC1CCCO1)N1C(=O)N2CCc3c([nH]c4ccccc34)[C@@]2(C)C1=O (stereo partly shown) | -24.7% |
| NC(=O)[C@H]1CC2(CC(c3cccc(NC(=O)[C@H]4CCC(=O)N4)c3)=NO2)CN1C(=O)c1ccccc1C(=O)c1ccccc1 (stereo partly shown) | 14.7% |

| Structure (SMILES) | hERG current change (%, negative = inhibition) at 10uM |
| --- | --- |
| COc1ccc(C(=O)NCc2nnc(SCC(=O)c3ccc(F)cc3)n2C)cc1OC | -36.3% |
| O=C(NC1CCCc2ccccc21)c1ccccc1Cl (stereo not shown) | 29.8% |
| O=C(CSC1=NNC(c2ccccn2)S1)Nc1ccc(C(F)(F)F)cc1 (stereo not shown) | 18.2% |
| O=C(N[C@@H](Cc1ccccc1)C(=O)N1CCN(S(=O)(=O)c2cccc(F)c2)CC1)c1ccco1 | -25.2% |
| CO/N=C(/CN1CCCCC1)c1ccc(Cl)cc1 | 8.9% |
| CCOc1nc2ccccc2nc1NS(=O)(=O)c1ccc(Cl)cc1 | -40.6% |
| O=C(O)CC1C(=O)NCCN1Cc1cccs1 (stereo not shown) | 8.09% |
| CS(=O)c1ccccc1O (stereo not shown) | 4.04% |
| O=C(CC(NS(=O)(=O)c1ccc(Cl)cc1)c1ccco1)NC1CCCC1 (stereo not shown) | -8% |
| O=S(=O)(c1cc(O)ccc1O)c1cccc2c(S(=O)(=O)c3cc(O)ccc3O)cccc12 | 10.8% |
| COc1ccc(Cl)cc1NC(=O)CN(C)C(=O)c1cc2ccccc2cc1O | 6.92% |
| CC(=O)Cn1c(CN2CCCC2)nc2ccccc2c1=O | 17.2% |
| Cc1ccc(C(=O)NCc2ccc(Cl)cc2)cc1S(=O)(=O)N1CCCCC1 | -0.995% |
| COC(=O)CCC(=O)OC1(C)C(=O)C2=CN(CCc3ccccn3)C(c3ccc(OC)cc3)=CC2=C(Br)C1=O (stereo not shown) | -14.8% |
| CC1CC2=C(NC(=S)NC2c2ccccc2F)/C(=C/c2ccccc2F)C1 (stereo not shown) | 25.8% |
| Cc1ncsc1CCC(=O)N1CCCC(Nc2ccc(C(C)C)cc2)C1 (stereo not shown) | 6.96% |
| O=C(CN1C(=O)COc2ccccc21)NCCCN1CCCC1 | 18.2% |
| Cc1ccc(N(C)C(=O)Oc2cccc3cccnc23)cc1 | 3.78% |
| COc1cccc(N2CC(C(=O)Nc3c(C(N)=O)oc4ccccc34)CC2=O)c1 (stereo not shown) | -22.1% |
| O=C(O)CCCC(=O)NS(=O)(=O)c1ccc(Cl)cc1 | 14% |
| O=C(COc1ccccc1)N1CCN=C1SCc1ccccc1F | -8.1% |
| Cc1ccc(Cn2nnc3c(=O)n(Cc4cccc(C)c4)cnc32)cc1 | 3.21% |

| Structure (SMILES) | hERG current change (%, negative = inhibition) at 10uM |
| --- | --- |
| CCOC(=O)C(C)n1nc(C)c2sc3ccccc3c2c1=O (stereo not shown) | -0.525% |
| COc1cc(NC(=O)COC(=O)c2ccccc2SCC(=O)N2CCCC2)cc(OC)c1 | -25.7% |
| CN1CCN(c2ccc(CNC(=O)c3cc4ccccc4o3)cc2)CC1 | -26.7% |
| Cc1ccc(NCc2nc3ccccc3n2C)c(C)c1 | -1.8% |
| Cc1cc(=O)[nH]c(Nc2ccc(N(C)C)cc2)n1 | 19.1% |
| Cc1ccc(NC(=O)c2ccc(CSc3nnc(C)s3)cc2)cc1 | 13% |
| CCOc1ccc(C2C(C(=O)Nc3cc(C)on3)c3ccccc3C(=O)N2CCN2CCOCC2)cc1 (stereo not shown) | 8.34% |
| Cc1ccccc1C(=O)NNC(=O)c1ccc(F)cc1 | -0.456% |
| O=C1CSc2ccc(C(=O)Nc3cccc(S(=O)(=O)Nc4ccc(Br)cc4)c3)cc2N1 | 15% |
| Cc1ccc(NC(=O)c2ccsc2)cc1NS(C)(=O)=O | 7.54% |
| O=C1CC(c2ccc(F)cc2)Cc2nc(NCc3ccco3)ncc21 (stereo not shown) | 11.4% |
| CCc1ccc2c(c1)C(c1ccc([N+](=O)[O-])cc1)=NNC(c1ccc(C)cc1)=N2 | -0.901% |
| O=C(CCC1CCCN(C(=O)c2cc(C3CC3)[nH]n2)C1)N1CCN(c2ccccn2)CC1 (stereo not shown) | 13.2% |
| CC(C)CN(C(=O)c1ccc(Br)o1)C1CCS(=O)(=O)C1 (stereo not shown) | -7.11% |
| O=C(Nc1ccc(S(=O)(=O)N2CCCC2)cc1)c1cccs1 | 67.1% |
| O=C(NC1CCCCC1)/C(=N\O)c1ccccn1 | 18% |
| COc1ccc(S(=O)(=O)NC2CCCC2)cc1Cl | -7.32% |
| C=CCOc1ccc(C(=O)Nc2ncn[nH]2)cc1 | 23.5% |
| CC(C)c1cc(-c2cc(C(=O)NCc3ccccc3)on2)nc(NC2CCCC2)n1 | 3.5% |
| CCNC(=S)N(CCc1c(C)[nH]c2ccc(C)cc12)Cc1cccnc1 | -8.61% |
| Cc1cc(C)cc(Oc2coc3cc(O)ccc3c2=O)c1 | -4.46% |
| C/C(CC(=O)Nc1ccc(OCc2ccccc2)cc1)=N\NC(=O)C(=O)Nc1cccc(C)c1 | 21.8% |
